Results as given in PubChem BioAssay AID504706 (National Center for Advancing Translational Sciences (NCATS), 2011).
Among all 320,000 compounds or so, about 200 (0.062%) were called active. The inconclusive results got no clear call from the source; some entries with a clear call stand among them for comparison. The call rests on the fitted dose curve; in most records, active means well fitted activation curve with a large enough effect; inconclusive means small, poorly fitted or top-dose-only effect; inactive means no such curve, though single readings can be large or run the other way. No potency is given beside an inconclusive call; the fits are too rough.

Experiment: qHTS assay for re-activators of p53 using a Luc reporter; further: nearly all actives have a fitted effect of over 45% in size
Details: H1299 p53-A138V BP100-luciferase reporter, luminescence, 24 h; series mostly up to 92.2 µM
Summary of the method: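 H1299 (p53-null), stable ts p53-A138V + BP100-Luc; 1000 cells/well, Opti-MEM/10% FBS; cpd 4 pt, 1:5; 24 h, 37 deg C, 5% CO2; detection reagent 10 min RT; luminescence.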
Potency means the concentration at half of the fitted maximal effect; tags describe the fitted curve by direction and shape.

SMILES	Potency
COCCn1c(C)c(C)c2c(NCCc3ccccc3)ncnc21	inconclusive [activator, full curve, poor fit]
CC1CC(C)CN(C(=O)COC(=O)c2cc3ccccc3oc2=O)C1 (stereo unspecified)	inconclusive [activator, partial curve, poor fit]
Cc1ccsc1C(=O)NNC(=O)Nc1ccc(Cl)c(Cl)c1	inconclusive [activator, single point]
O=C(c1ccco1)N1CCN(c2ccc(N3CCCCC3)nn2)CC1	inconclusive [activator, full curve, poor fit]
CC(C)(C)C(=O)NC(NC(=S)Nc1sc2c(c1C#N)CCCC2)C(Cl)(Cl)Cl (stereo unspecified)	inactive
C/C=C/c1ccc(OCCCCn2cncn2)c(OC)c1	inconclusive [activator, single point]
COc1cccc(C(=O)Nc2cccc3c2ccc2cccn23)c1	inactive
CC(C)C1OC2(C)OC(=N)C1(C#N)C(C#N)(C#N)C2c1ccccc1 (stereo unspecified)	inactive
Cc1ccc(S(=O)(=O)N(C)CC(=O)OCC(=O)N2CCN(c3ccccc3)CC2)cc1	inactive
CCOc1ncccc1C(=O)Nc1cc2c(cc1Br)OCCO2	inconclusive [activator, partial curve, poor fit]
C/C(=N\NC(=O)CSc1nc2ccccc2s1)c1ccco1	inconclusive [activator, partial curve, poor fit]
Cc1ccc(NC(=O)Nc2nnc(Cc3ccc([N+](=O)[O-])cc3)s2)cc1	inconclusive [activator, partial curve, poor fit]
O=C1/C(=C/c2ccc(Br)cc2)Oc2cc(O)ccc21	inconclusive [activator, full curve, poor fit]
CSc1ccc(/C=N/n2c(C3CCCCC3)n[nH]c2=S)cc1	inconclusive [activator, single point]
Cn1c(C(=O)NCc2ccccn2)cc2c(=O)n3ccccc3nc21	inconclusive [activator, partial curve, poor fit]
O=C(Nc1c(C(=O)O)oc2ccc(Br)cc12)c1ccccc1	inconclusive [activator, full curve, poor fit]
O=C(c1cc2ccccc2oc1=O)N(Cc1ccco1)C1CCS(=O)(=O)C1 (stereo unspecified)	inconclusive [activator, single point]
Cc1ccc(/C(N)=N/OC(=O)c2cccs2)cc1	inconclusive [activator, partial curve, poor fit]
O=S1(=O)CCN(Cc2csc(-c3cccs3)n2)CC1	inactive
CN(C)/C=C(/C(=O)c1ccc(Cl)cc1Cl)S(=O)(=O)c1ccccc1	inconclusive [activator, single point]
COc1ccc(C2=NOC(Cn3nc(-c4ccccc4)cc3C(=O)O)C2)cc1 (stereo unspecified)	inactive
Cc1csc(Sc2nc3c(c(=O)[nH]c(=O)n3C)n2CCCc2ccccc2)n1	inconclusive [activator, partial curve, poor fit]

SMILES	Potency
Cc1ccc(/C=C/C(=O)N2CCCN(C(=O)/C=C/c3ccc(C)cc3)CC2)cc1	inconclusive [activator, single point]
CCCN1CCC(=O)N([C@H](COc2ccccc2)CC(C)C)CC1	inactive
CC(C)c1onc(C(=O)N2CCN(c3ccccc3)CC2)c1[N+](=O)[O-]	inactive
O=C(Nc1ccc2oc(-c3ccccc3)nc2c1)c1ccccc1F	inconclusive [activator, partial curve, poor fit]
Cc1c(C(=O)OCC(C)C)[nH]c2c1C(=O)CC(c1ccco1)C2 (stereo unspecified)	inconclusive [activator, full curve, poor fit]
CCOc1cc(/C=N\NC(=O)c2ccc(NC(=O)C(C)(C)C)cc2)ccc1OC(=O)c1cccc(C)c1	inactive
N/C(=N\OC(=O)Cc1cccs1)c1ccc(Br)cc1	inconclusive [activator, partial curve, poor fit]
CC1Cc2ccccc2N1C(=O)CSc1nc2ccccc2o1 (stereo unspecified)	inconclusive [activator, single point]
CC(Oc1ccc(F)cc1)C(=O)Nc1ccc2ccccc2c1 (stereo unspecified)	inconclusive [activator, single point]
CCC(=O)Oc1ccc(-c2cnc3ccccc3n2)cc1	inconclusive [activator, full curve, poor fit]
COc1ccc2ccccc2c1/C=N/Nc1ccc(Cl)c(C(=O)O)c1	inconclusive [activator, partial curve, poor fit]
O=C(O)c1cc(O)c2c(c1)[C@@H]([C@H]1c3cc(C(=O)O)cc(O)c3C(=O)c3c(O[C@@H]4O[C@H](CO)[C@@H](O)[C@H](O)[C@H]4O)cccc31)c1cccc(O[C@@H]3O[C@H](CO)[C@@H](O)[C@H](O)[C@H]3O)c1C2=O	inactive
Cc1cc(NC(=O)CSc2nc(-c3ccco3)cc(C(F)(F)F)n2)no1	inactive
O=C(NCc1ccccn1)c1nc(Cn2cc([N+](=O)[O-])cn2)no1	inactive
O=C(NCCc1ccccc1)c1ccccc1NS(=O)(=O)N1CCCC1	inconclusive [activator, full curve, poor fit]
Clc1ccc2nc(N3CCCCC3)[nH]c2c1	inconclusive [activator, partial curve, poor fit]
Cc1ccc(-c2cnn(-c3cccc(C(F)(F)F)c3)c2N)cc1	inconclusive [activator, partial curve]
Cc1cc(/C=C2\SC(=S)NC2=O)cc(C)c1O	inconclusive [activator, full curve, poor fit]
CCOc1ccc2oc(C(=O)OCC(=O)NCc3ccc(OC)cc3)c(C)c2c1	inconclusive [activator, single point]
Cc1ccc(NC(=O)c2ccc(COc3ccccc3)o2)nc1	inconclusive [activator, partial curve, poor fit]
Nc1nc(-c2ccc(Br)cc2)cs1	inconclusive [activator, partial curve, poor fit]
Cc1csc(NC(=O)Cc2c[nH]c3ccccc23)n1	inconclusive [activator, full curve, poor fit]

SMILES	Potency
O=C(OCc1ccccc1F)c1ccc2c(c1)-c1ccccc1C2=O	inconclusive [activator, full curve, poor fit]
CCCn1nnc(NC(=O)c2cccc(OCC)c2)n1	inconclusive [activator, partial curve, poor fit]
COc1ccc(NC(=O)c2cc(-c3cccs3)on2)cc1	inconclusive [activator, full curve, poor fit]
Cc1ccc(/C=C2\SC(=S)N(CCC(=O)N3CCOCC3)C2=O)cc1	inconclusive [activator, full curve, poor fit]
CCN(CC)C(=O)COC(=O)c1cc(-c2ccco2)nc2ccccc12	inconclusive [activator, single point]
CC(C)c1cc(NC(=O)CCl)on1	inconclusive [activator, partial curve, poor fit]
CCCN=C1N(C)C[C@@H]2[C@@H]3C(=O)N(Cc4ccccc4)C(=O)[C@@H]3[C@](C)(C(=O)OC)N12	inactive
COc1ccccc1C(=O)NCC(=O)N/N=C/c1ccncc1	inactive
Cc1ccc(C(=O)N/N=C(\CC(C)C)c2ccccc2)cc1	inconclusive [activator, partial curve, poor fit]
Cc1ccccc1NC(=O)c1cc2ccccn2n1	inactive
Cn1cc(CN2CCN(CC(C)(C)C)C(CCO)C2)c2ccccc21 (stereo unspecified)	inconclusive [activator, partial curve, poor fit]
Cc1cc(O)ccc1Nc1nc(-c2sc(N)nc2C)cs1	inconclusive [activator, single point]
Cc1ccc(-c2nnc(N)s2)cc1	inconclusive [activator, full curve, poor fit]
Cc1nc(N)sc1N=Nc1ccccc1C(F)(F)F	inconclusive [activator, full curve, poor fit]
CCN(CC)C(=O)c1nn(-c2ccccc2)c2c1C1CCC2(C)C1(C)C (stereo unspecified)	inactive
CCCCNC(=O)Cn1cnc([N+](=O)[O-])n1	inactive
Oc1ccc(C=Nc2ccccc2-c2nc3ccccc3[nH]2)c(O)c1	inconclusive [activator, partial curve, poor fit]
O=C(CSc1nc2ccccc2c(=O)n1NC(=O)c1ccccc1)c1ccccc1	inconclusive [activator, partial curve, poor fit]
O=C(CSC(=S)N1CCCCC1)c1c(F)cccc1F	inconclusive [activator, full curve, poor fit]
Cc1cc([N+](=O)[O-])ccc1NC(=O)CN1CCN(Cc2ccccc2)CC1	inactive
COc1ccc(C2c3c(ccc4ccccc34)Oc3ncn4nc(Cc5ccc(OC)c(OC)c5)nc4c32)cc1 (stereo unspecified)	inconclusive [activator, single point]
CC(C)(C)N=C1NN=C(c2ccc(Cl)cc2)CS1	inconclusive [activator, full curve, poor fit]
